This is one part of the list.
What follows are sequences tested against T1, OsWOX13 (Oryza sativa, UniProt Q5QMM3 1-267) (assay: protein-binding microarray (RPBM); PBS, 2% BSA, 51.3 ng/ul salmon testes DNA, 50 uM zinc acetate, 200 nM TF, 25 C, 1 h; high values mean tight binding). Conditions: protein: recombinant; tags: N-terminal polyhistidine and DsRed monomer fusion (pET32a); label: CyDye5-dUTP incorporated in the synthesized complementary strand; 3' TTTTT single-stranded linker to array surface; dsDNA, one strand shown.
T1 sequence: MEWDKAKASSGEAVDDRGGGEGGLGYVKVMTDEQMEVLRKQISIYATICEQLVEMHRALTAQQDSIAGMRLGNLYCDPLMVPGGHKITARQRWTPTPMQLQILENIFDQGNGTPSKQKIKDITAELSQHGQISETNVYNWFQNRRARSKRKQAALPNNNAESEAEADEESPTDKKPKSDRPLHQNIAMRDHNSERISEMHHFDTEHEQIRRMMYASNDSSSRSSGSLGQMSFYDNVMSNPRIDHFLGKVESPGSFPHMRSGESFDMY
How it was run: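 In PBS with 2% BSA, salmon testes DNA and 50 µM zinc acetate, 200 nM protein was incubated on a custom Agilent array at 25 °C for 1 h and then washed off. The array had been made double-stranded by primer extension with Cy5-dUTP and blocked with 2% BSA. The proteins were transcription factors fused N-terminally to polyhistidine and DsRed, expressed in E. coli BL21-CodonPlus and purified on Ni–NTA. The binding signal is per-feature fluorescence intensity (arbitrary units) from an Axon 4000B scanner.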

Row | Sequence | binding signal
1 | AGCTAATCAATCGCTTACGTCCCACCGCGACTCGTGTGAACGGAGTCACCTAGTGCAG | 16400 fluorescence intensity (a.u.)
2 | GGACAGAGAATTTGAGCTAATTGGACATGATTTTGGCCAACGGAGTCACCTAGTGCAG | 8150 fluorescence intensity (a.u.)
3 | CACCATTCATTCAATCTAGTTATTATCTGCTGGGTACTCTCGGAGTCACCTAGTGCAG | 11800 fluorescence intensity (a.u.)
4 | ACCCTTGATTTACTTGATAATTTGTTATATGTCCCCATCCCGGAGTCACCTAGTGCAG | 49800 fluorescence intensity (a.u.)
5 | GCTATCTTTAATCTATTGGTTAATTATTGGCCATCAGTTCCGGAGTCACCTAGTGCAG | 5840 fluorescence intensity (a.u.)
6 | CACCATAGATTAAATTAACAATAATATAATCACCACCAGACGGAGTCACCTAGTGCAG | 18700 fluorescence intensity (a.u.)
7 | GTTAATTTAATTGAAATTTAAATTTAAATCAATCTGCATTCGGAGTCACCTAGTGCAG | 57600 fluorescence intensity (a.u.)
8 | CCATCATCAATTTTAAAGTTTAAACACCATGTTTAGGGTTCGGAGTCACCTAGTGCAG | 3900 fluorescence intensity (a.u.)
9 | CTTAATTATCGTACCAAGGCTGTTTATTTGTTTTCTAAATCGGAGTCACCTAGTGCAG | 21800 fluorescence intensity (a.u.)
10 | TACTAGATTACAATATTTTAGACAGATGCAGTAACTTCCCCGGAGTCACCTAGTGCAG | 14300 fluorescence intensity (a.u.)
11 | GTGCGTGATGATTAAGGCATGAAAATCTTAAACAACTATTCGGAGTCACCTAGTGCAG | 3200 fluorescence intensity (a.u.)
12 | TTTAATAAAACTAATTTGACGTTGTAAATATTAGTACTATCGGAGTCACCTAGTGCAG | 4620 fluorescence intensity (a.u.)
13 | CATTAAGAGTGATTGAATCTTGTTCTAAACATTAACTTTTCGGAGTCACCTAGTGCAG | 26300 fluorescence intensity (a.u.)
14 | TATATATATATATATATATATATCTTGAAAACGTGATGTGCGGAGTCACCTAGTGCAG | 6240 fluorescence intensity (a.u.)
15 | AGATGACGAGTTGATGAGACCGTCATGTTTGACCTGGTATCGGAGTCACCTAGTGCAG | 14000 fluorescence intensity (a.u.)
16 | GCCGTCAAGATCATGATTGGGAGGACGTCGATTAATAAATCGGAGTCACCTAGTGCAG | 15300 fluorescence intensity (a.u.)
17 | CATGTTAATTTTCTACTACAGCTTAGGTTGATGCTATGTTCGGAGTCACCTAGTGCAG | 9040 fluorescence intensity (a.u.)
18 | TGCTTCAATCATCATTGCATAAATGTGCATTACAGTGAATCGGAGTCACCTAGTGCAG | 19400 fluorescence intensity (a.u.)
19 | AAAATTAGCTTCAATCAAGGTAACCAAACACGCCAGAGCTCGGAGTCACCTAGTGCAG | 47100 fluorescence intensity (a.u.)
20 | TACTAAATTGACTATGGACGATTTAGAGCTCGTAGTTGGCCGGAGTCACCTAGTGCAG | 53600 fluorescence intensity (a.u.)
21 | TGTCTAATTATAGAACTTCTTATATTTTAAGACGAATGGACGGAGTCACCTAGTGCAG | 14300 fluorescence intensity (a.u.)
22 | ATTAAAAGAATTGCTGATTGTATTGCCATGTAGGACCAAACGGAGTCACCTAGTGCAG | 5540 fluorescence intensity (a.u.)
23 | AATTGGACTGATGATAGAAACAAGTGACTGGTAAGCTGATCGGAGTCACCTAGTGCAG | 9880 fluorescence intensity (a.u.)
24 | GGACAATGTAATTAATAATTTAATTGGCTTGAGTTTGTTTCGGAGTCACCTAGTGCAG | 25800 fluorescence intensity (a.u.)
25 | TCAAATAAATTGGTTAGAGAACATAGTAAAGAATATGACACGGAGTCACCTAGTGCAG | 12900 fluorescence intensity (a.u.)
26 | CTAAACAGTTTGAAGTGGTTTACTGAATGGAAATTCTGTTCGGAGTCACCTAGTGCAG | 6830 fluorescence intensity (a.u.)
27 | ATACGAAATAGAAATGATCATTTATTTACCTAAATGCCACCGGAGTCACCTAGTGCAG | 3310 fluorescence intensity (a.u.)

Row | Sequence | binding signal
28 | ATGCTAATTACGCGCGTCTTCCCACCTTCGCATGGTGGGCCGGAGTCACCTAGTGCAG | 24800 fluorescence intensity (a.u.)
29 | ATCATAATTAGCTCGTTCGTTGTCGACATAACTATATCGCCGGAGTCACCTAGTGCAG | 33500 fluorescence intensity (a.u.)
30 | AAAGATTATGCTTTATTCTCATAATCAAGAAATAGGATAACGGAGTCACCTAGTGCAG | 3520 fluorescence intensity (a.u.)
31 | CCGTAACATAATTTCAGCGGTGGTACGTAGTACGGACGACCGGAGTCACCTAGTGCAG | 11100 fluorescence intensity (a.u.)
32 | TCTCACATTATAATCAGGGCTAATTCTCTAGATGGAACCACGGAGTCACCTAGTGCAG | 4500 fluorescence intensity (a.u.)
33 | GCTCTATGATTTGACAATGTAGTGCTACAGTAAACATTTGCGGAGTCACCTAGTGCAG | 13900 fluorescence intensity (a.u.)
34 | CAACATTGATTACGAGATGCTTTCTAATGGAAAATTATGTCGGAGTCACCTAGTGCAG | 36000 fluorescence intensity (a.u.)
35 | AAAACAAATTATAGATTCTACCTGTAAACTGCGAGACGAACGGAGTCACCTAGTGCAG | 17200 fluorescence intensity (a.u.)
36 | ATGTTCTTAGATTGATTAAGATTGTCAATTGATTACTCCACGGAGTCACCTAGTGCAG | 60500 fluorescence intensity (a.u.)
37 | TCACCACTAATCATGCATCTCTATTCAGAATTTCAGAGCACGGAGTCACCTAGTGCAG | 3790 fluorescence intensity (a.u.)
38 | CCATACAAATCTCCGTCCATTAATGAAGAGAAGTCAAGTACGGAGTCACCTAGTGCAG | 5390 fluorescence intensity (a.u.)
39 | TCCTGATTTCGCCGCCACTTGTAGCATCTGCCCGTGGGGTCGGAGTCACCTAGTGCAG | 5510 fluorescence intensity (a.u.)
40 | TTCGGGATTGAAGTTCCATCTACATGAAAGATGAGTTGCACGGAGTCACCTAGTGCAG | 9960 fluorescence intensity (a.u.)
41 | AGAGATTAGCTTCTGTTTTATGGTTCCCTTGTTATATTGGCGGAGTCACCTAGTGCAG | 3910 fluorescence intensity (a.u.)
42 | GCGCCCCTTAACTAATTAAAACCGGTCAGTCCTTCGGTGGCGGAGTCACCTAGTGCAG | 4340 fluorescence intensity (a.u.)
43 | CCGTGATTAGTTCGGTGCGTGTAAAGGTAGTCTGCAACATCGGAGTCACCTAGTGCAG | 35700 fluorescence intensity (a.u.)
44 | TTTATGTGACTGATATTTAGGTCCTACTAACATATTTGACCGGAGTCACCTAGTGCAG | 6340 fluorescence intensity (a.u.)
45 | TCTAAAATTAATCATCATCGATGAAAGTGATCGTGTCCAACGGAGTCACCTAGTGCAG | 12800 fluorescence intensity (a.u.)
46 | CTTATATTTATCAATCAAAATTTAAAATTTCAACTTTAAACGGAGTCACCTAGTGCAG | 20500 fluorescence intensity (a.u.)
47 | CCCATTGTAGCCAATCAAGAACAGAGATCGTAAGAGATTCCGGAGTCACCTAGTGCAG | 6760 fluorescence intensity (a.u.)
48 | TTGTATCATTACCTAATTAGAGCTAGCTCTGCCACCACTGCGGAGTCACCTAGTGCAG | 4150 fluorescence intensity (a.u.)
49 | ACCATTAATTAGTATACTGTCCTATCCCCTAACTAAGCCACGGAGTCACCTAGTGCAG | 30800 fluorescence intensity (a.u.)
50 | ATATGATCGTATAATTAAATGAGATCATGATTAAGTGGAGCGGAGTCACCTAGTGCAG | 16400 fluorescence intensity (a.u.)
51 | ACCAACTTGTGATTTATTATCATGTGGATTATGAAGAGTTCGGAGTCACCTAGTGCAG | 9690 fluorescence intensity (a.u.)
52 | TTAAATTACTCATCCGATTTACAATCCGATTACACCGTTGCGGAGTCACCTAGTGCAG | 16600 fluorescence intensity (a.u.)
53 | AAGGTACTAAAATTGACATTAAATTTAGGTATCTTTTAAACGGAGTCACCTAGTGCAG | 6570 fluorescence intensity (a.u.)
54 | TGTAATTATCATTTATTTTGTTGTGACTTGATTCATCATCCGGAGTCACCTAGTGCAG | 19400 fluorescence intensity (a.u.)
